The IC50 comes from the fitted curve, where viability falls to half of the control; where the fit passes the top or lowest dose, that dose stands as a limit. The AUC spans the tested range (256-fold, ending at the top dose) of the same fit; it is 1 without any effect and falls as sensitivity rises. Where the top dose is marked as inferred, it is not printed in the source and was worked back from the curve model.
These cell lines were tested with CCc1nc(-c2cccc(C)c2)c(-c2ccnc(NC(=O)c3ccccc3)c2)s1 [TAK-715] (assay: Viability of human cancer cell lines after 72 h of drug (GDSC screen)). Settings: top dose inferred.
Procedure: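 Human cancer cell lines in 384-well plates, medium with 10% serum, drug for 72 h over a 256-fold dose range (nine 2-fold or five 4-fold steps up to the top dose). Adherent lines were fixed and stained with the nucleic acid dye Syto60, suspension lines read with resazurin; signal relative to control wells, capped at 0 and 100%. One two-parameter sigmoid per drug and line, fitted in a mixed model over all curves with the slope shared within a line.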

Question: With “LN-229 (glioma, adherent, top dose 20 µM)” as the cell line, how does the AUC read?
Answer: 0.981

Question: What about the IC50 of the same cell line?
Answer: > 20 µM

Question: Which results are given for “LN-405 (glioma, adherent, top dose 20 µM)”?
Answer: AUC: 0.97; IC50: > 20 µM

Question: What does the source list for “LNCaP-Clone-FGC (prostate, adherent, top dose 20 µM)”?
Answer: AUC: 0.897; IC50: > 20 µM

Question: With “LNZTA3WT4 (glioma, adherent, top dose 20 µM)” as the cell line, how does the AUC read?
Answer: 0.979

Question: And the IC50?
Answer: > 20 µM

Question: What does the source list for “LOU-NH91 (lung squamous cell carcinoma, adherent, top dose 20 µM)”?
Answer: AUC: 0.977; IC50: > 20 µM

Question: “LOUCY (T-cell lymphoblastic leukaemia, suspension, top dose 20 µM)” was tested. Which AUC did it give?
Answer: 0.755

Question: What about the IC50 of the same cell line?
Answer: 5.68 µM

Question: Which AUC does the source give for “LOXIMVI (melanoma, semi-adherent, top dose 20 µM)” here?
Answer: 0.97

Question: What about the IC50 of the same cell line?
Answer: > 20 µM

Question: For “LP-1 (myeloma, suspension, top dose 20 µM)”, which AUC is on record?
Answer: 0.897

Question: What about the IC50 of the same cell line?
Answer: 17.3 µM

Question: “LS-123 (large intestine, adherent, top dose 20 µM)” was tested. Which AUC did it give?
Answer: 0.935

Question: And the IC50?
Answer: > 20 µM

Question: For “LS-180 (large intestine, adherent, top dose 20 µM)”, which AUC is on record?
Answer: 0.94

Question: And the IC50?
Answer: > 20 µM

Question: Which AUC does the source give for “LS-411N (large intestine, adherent, top dose 20 µM)” here?
Answer: 0.901

Question: What about the IC50 of the same cell line?
Answer: > 20 µM

Question: With “LS-513 (large intestine, adherent, top dose 20 µM)” as the cell line, how does the AUC read?
Answer: 0.87

Question: What about the IC50 of the same cell line?
Answer: 19.9 µM

Question: Which AUC does the source give for “LS-1034 (large intestine, adherent, top dose 20 µM)” here?
Answer: 0.966

Question: And the IC50?
Answer: > 20 µM

Question: How did the AUC turn out when “LU-65 (large cell lung carcinoma, suspension, top dose 20 µM)” was run?
Answer: 0.93

Question: And the IC50?
Answer: > 20 µM

Question: For “LU-99A (large cell lung carcinoma, adherent, top dose 20 µM)”, which AUC is on record?
Answer: 0.961

Question: And the IC50?
Answer: > 20 µM

Question: How did the AUC turn out when “LU-134-A (small cell lung carcinoma, suspension, top dose 20 µM)” was run?
Answer: 0.981

Question: And the IC50?
Answer: > 20 µM

Question: What does the source list for “LU-135 (small cell lung carcinoma, suspension, top dose 20 µM)”?
Answer: AUC: 0.971; IC50: > 20 µM

Question: Which AUC does the source give for “LU-139 (small cell lung carcinoma, suspension, top dose 20 µM)” here?
Answer: 0.897

Question: What about the IC50 of the same cell line?
Answer: > 20 µM

Question: With “LU-165 (small cell lung carcinoma, suspension, top dose 20 µM)” as the cell line, how does the AUC read?
Answer: 0.985

Question: What about the IC50 of the same cell line?
Answer: > 20 µM

Question: “LXF-289 (lung adenocarcinoma, adherent, top dose 20 µM)” was tested. Which AUC did it give?
Answer: 0.919

Question: And the IC50?
Answer: > 20 µM

Question: For “LoVo (large intestine, adherent, top dose 20 µM)”, which AUC is on record?
Answer: 0.987

Question: And the IC50?
Answer: > 20 µM

Question: Which results are given for “M14 (melanoma, adherent, top dose 20 µM)”?
Answer: AUC: 0.986; IC50: > 20 µM

Question: “M059J (glioma, adherent, top dose 20 µM)” was tested. Which AUC did it give?
Answer: 0.952

Question: What about the IC50 of the same cell line?
Answer: > 20 µM

Question: “MC116 (B-cell lymphoma, suspension, top dose 20 µM)” was tested. Which AUC did it give?
Answer: 0.976

Question: And the IC50?
Answer: > 20 µM

Question: Which results are given for “MC-CAR (haematopoietic neoplasm, suspension, top dose 20 µM)”?
Answer: AUC: 0.858; IC50: 13.7 µM

Question: What does the source list for “MC-IXC (neuroblastoma, adherent, top dose 20 µM)”?
Answer: AUC: 0.83; IC50: 8.27 µM

Question: What does the source list for MCF7 (breast, adherent, top dose 20 µM)?
Answer: AUC: 0.955; IC50: > 20 µM

Question: With “MDA-MB-157 (breast, adherent, top dose 20 µM)” as the cell line, how does the AUC read?
Answer: 0.987

Question: And the IC50?
Answer: > 20 µM

Question: “MDA-MB-175-VII (breast, adherent, top dose 20 µM)” was tested. Which AUC did it give?
Answer: 0.958

Question: What about the IC50 of the same cell line?
Answer: > 20 µM

Question: How did the AUC turn out when “MDA-MB-231 (breast, adherent, top dose 20 µM)” was run?
Answer: 0.984

Question: And the IC50?
Answer: > 20 µM

Question: Which results are given for “MDA-MB-330 (breast, adherent, top dose 20 µM)”?
Answer: AUC: 0.975; IC50: > 20 µM

Question: With “MDA-MB-361 (breast, adherent, top dose 20 µM)” as the cell line, how does the AUC read?
Answer: 0.986

Question: And the IC50?
Answer: > 20 µM

Question: Which results are given for “MDA-MB-415 (breast, adherent, top dose 20 µM)”?
Answer: AUC: 0.978; IC50: > 20 µM

Question: What does the source list for “MDA-MB-436 (breast, adherent, top dose 20 µM)”?
Answer: AUC: 0.976; IC50: > 20 µM

Question: Which results are given for “MDA-MB-453 (breast, adherent, top dose 20 µM)”?
Answer: AUC: 0.885; IC50: > 20 µM

Question: Which results are given for “MDA-MB-468 (breast, adherent, top dose 20 µM)”?
Answer: AUC: 0.895; IC50: > 20 µM

Question: For “MDST8 (large intestine, adherent, top dose 20 µM)”, which AUC is on record?
Answer: 0.987

Question: What about the IC50 of the same cell line?
Answer: > 20 µM

Question: What does the source list for “ME-1 (acute myeloid leukaemia, suspension, top dose 20 µM)”?
Answer: AUC: 0.985; IC50: > 20 µM

Question: What does the source list for “ME-180 (cervix, adherent, top dose 20 µM)”?
Answer: AUC: 0.822; IC50: 12.4 µM

Question: What does the source list for “MEG-01 (chronic myeloid leukaemia, suspension, top dose 20 µM)”?
Answer: AUC: 0.841; IC50: 12.7 µM
